Reference: the supplement of paper PMC10369915
The list shows a part of the results. No stated cut-off is given here; in the data, active = 3.2 or more and inactive = the rest. Most of these values are background signal.

target: SHP2 C-SH2 domain E139D; experiment: enrichment score (SH2-bound / input frequency) (ratio); bacterial display of known human phosphotyrosine sites (pTyr-Var adds point mutants) read by sequencing; higher = stronger binding; tyrosines were phosphorylated by kinases first; conditions: peptide library: pTyr-Var
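Further: displayed peptides selected on beads carrying the immobilized SH2 domain, with library peptides lacking any tyrosine serving as negative controls.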

Enrichment score, inactive:
GGQSVYHVNLH [HINT1_Y109_H112N] 0.799
GLNKDYRMVVN [HINT1_Y94_G93D] 0.679
FSEVRYMKEPY [HIPK4_Y170_V171M] 0.932
FSEVRYMKEPF [HIPK4_Y170_V171M_YF] 1.05
QLHRKYCLSPR [HJURP_Y445_E444K] 0.62
VDGSLYKTHPQ [HK1_Y417] 0.563
VDGSLYETHPQ [HK1_Y417_K418E] 0.626
TIQIMYGCDVG [HLA-A_Y123] 1.09
TIQMMYGCDVG [HLA-A_Y123_I121M] 1.03
TIQRMYGCDVG [HLA-A_Y123_I121R] 0.621
TIQIMFGCDVG [HLA-A_Y123_Y123F] 1.64
RFLRGYRQHAF [HLA-A_Y137_D140H_YF] 0.2
RFLRGYRQFAF [HLA-A_Y137_D140Y_YF] 0.26
RGFRQYAFDGK [HLA-A_Y140_D140Y_YF] 0.558
QEGPEYWDEET [HLA-A_Y83_Q86E] 0.441
TLQRMYGCDVG [HLA-B_Y123_S121R] 0.791
TLQSMYGCDLG [HLA-B_Y123_V127L] 0.981
TLQSMYGCDMG [HLA-B_Y123_V127M] 0.717

target: SHP2 C-SH2 domain wild-type; experiment: as above; conditions: peptide library: pTyr-Var

Enrichment score, inactive:
GGQSVYHVNLH [HINT1_Y109_H112N] 0.609
GLNKDYRMVVN [HINT1_Y94_G93D] 0.812
FSEVRYMKEPY [HIPK4_Y170_V171M] 0.957
FSEVRYMKEPF [HIPK4_Y170_V171M_YF] 0.714
QLHRKYCLSPR [HJURP_Y445_E444K] 0.71
VDGSLYKTHPQ [HK1_Y417] 0.549
VDGSLYETHPQ [HK1_Y417_K418E] 0.505
TIQIMYGCDVG [HLA-A_Y123] 1.3
TIQMMYGCDVG [HLA-A_Y123_I121M] 1.05
TIQRMYGCDVG [HLA-A_Y123_I121R] 0.8
TIQIMFGCDVG [HLA-A_Y123_Y123F] 1.99
RFLRGYRQHAF [HLA-A_Y137_D140H_YF] 0.226
RFLRGYRQFAF [HLA-A_Y137_D140Y_YF] 0.33
RGFRQYAFDGK [HLA-A_Y140_D140Y_YF] 0.399
QEGPEYWDEET [HLA-A_Y83_Q86E] 0.588
TLQRMYGCDVG [HLA-B_Y123_S121R] 0.779
TLQSMYGCDLG [HLA-B_Y123_V127L] 0.96
TLQSMYGCDMG [HLA-B_Y123_V127M] 0.859

target: SHP2 N-SH2 domain L43F; experiment: as above; conditions: peptide library: pTyr-Var

Enrichment score, inactive:
GGQSVYHVNLH [HINT1_Y109_H112N] 0.536
GLNKDYRMVVN [HINT1_Y94_G93D] 0.715
FSEVRYMKEPY [HIPK4_Y170_V171M] 0.827
FSEVRYMKEPF [HIPK4_Y170_V171M_YF] 0.666
QLHRKYCLSPR [HJURP_Y445_E444K] 0.714
VDGSLYKTHPQ [HK1_Y417] 0.607
VDGSLYETHPQ [HK1_Y417_K418E] 0.701
TIQIMYGCDVG [HLA-A_Y123] 1.31
TIQMMYGCDVG [HLA-A_Y123_I121M] 0.921
TIQRMYGCDVG [HLA-A_Y123_I121R] 0.679
TIQIMFGCDVG [HLA-A_Y123_Y123F] 1.66
RFLRGYRQHAF [HLA-A_Y137_D140H_YF] 0.286
RFLRGYRQFAF [HLA-A_Y137_D140Y_YF] 0.286
RGFRQYAFDGK [HLA-A_Y140_D140Y_YF] 0.294
QEGPEYWDEET [HLA-A_Y83_Q86E] 0.368
TLQRMYGCDVG [HLA-B_Y123_S121R] 0.944
TLQSMYGCDLG [HLA-B_Y123_V127L] 0.982
TLQSMYGCDMG [HLA-B_Y123_V127M] 1.08

target: SHP2 N-SH2 domain T42A; experiment: as above; conditions: peptide library: pTyr-Var

Enrichment score, inactive:
GGQSVYHVNLH [HINT1_Y109_H112N] 0.545
GLNKDYRMVVN [HINT1_Y94_G93D] 0.586
FSEVRYMKEPY [HIPK4_Y170_V171M] 0.854
FSEVRYMKEPF [HIPK4_Y170_V171M_YF] 1.02
QLHRKYCLSPR [HJURP_Y445_E444K] 0.691
VDGSLYKTHPQ [HK1_Y417] 0.557
VDGSLYETHPQ [HK1_Y417_K418E] 0.497
TIQIMYGCDVG [HLA-A_Y123] 1.05
TIQMMYGCDVG [HLA-A_Y123_I121M] 0.744
TIQRMYGCDVG [HLA-A_Y123_I121R] 0.876
TIQIMFGCDVG [HLA-A_Y123_Y123F] 1.37
RFLRGYRQHAF [HLA-A_Y137_D140H_YF] 0.194
RFLRGYRQFAF [HLA-A_Y137_D140Y_YF] 0.238
RGFRQYAFDGK [HLA-A_Y140_D140Y_YF] 0.375
QEGPEYWDEET [HLA-A_Y83_Q86E] 0.437
TLQRMYGCDVG [HLA-B_Y123_S121R] 0.891
TLQSMYGCDLG [HLA-B_Y123_V127L] 0.829
TLQSMYGCDMG [HLA-B_Y123_V127M] 0.839

target: SHP2 N-SH2 domain T52S; experiment: as above; conditions: peptide library: pTyr-Var

Enrichment score, inactive:
GGQSVYHVNLH [HINT1_Y109_H112N] 0.751
GLNKDYRMVVN [HINT1_Y94_G93D] 0.56
FSEVRYMKEPY [HIPK4_Y170_V171M] 0.99
FSEVRYMKEPF [HIPK4_Y170_V171M_YF] 0.828
QLHRKYCLSPR [HJURP_Y445_E444K] 0.608
VDGSLYKTHPQ [HK1_Y417] 0.466
VDGSLYETHPQ [HK1_Y417_K418E] 0.675
TIQIMYGCDVG [HLA-A_Y123] 1.03
TIQMMYGCDVG [HLA-A_Y123_I121M] 0.807
TIQRMYGCDVG [HLA-A_Y123_I121R] 0.519
TIQIMFGCDVG [HLA-A_Y123_Y123F] 1.36
RFLRGYRQHAF [HLA-A_Y137_D140H_YF] 0.176
RFLRGYRQFAF [HLA-A_Y137_D140Y_YF] 0.295
RGFRQYAFDGK [HLA-A_Y140_D140Y_YF] 0.372
QEGPEYWDEET [HLA-A_Y83_Q86E] 0.357
TLQRMYGCDVG [HLA-B_Y123_S121R] 0.838
TLQSMYGCDLG [HLA-B_Y123_V127L] 0.819
TLQSMYGCDMG [HLA-B_Y123_V127M] 0.891

target: SHP2 N-SH2 domain wild-type; experiment: as above; conditions: peptide library: pTyr-Var

Enrichment score, inactive:
GGQSVYHVNLH [HINT1_Y109_H112N] 0.749
GLNKDYRMVVN [HINT1_Y94_G93D] 0.746
FSEVRYMKEPY [HIPK4_Y170_V171M] 1.03
FSEVRYMKEPF [HIPK4_Y170_V171M_YF] 1.03
QLHRKYCLSPR [HJURP_Y445_E444K] 0.689
VDGSLYKTHPQ [HK1_Y417] 0.664
VDGSLYETHPQ [HK1_Y417_K418E] 0.844
TIQIMYGCDVG [HLA-A_Y123] 1.62
TIQMMYGCDVG [HLA-A_Y123_I121M] 1.17
TIQRMYGCDVG [HLA-A_Y123_I121R] 0.836
TIQIMFGCDVG [HLA-A_Y123_Y123F] 2.11
RFLRGYRQHAF [HLA-A_Y137_D140H_YF] 0.309
RFLRGYRQFAF [HLA-A_Y137_D140Y_YF] 0.314
RGFRQYAFDGK [HLA-A_Y140_D140Y_YF] 0.402
QEGPEYWDEET [HLA-A_Y83_Q86E] 0.707
TLQRMYGCDVG [HLA-B_Y123_S121R] 1.11
TLQSMYGCDLG [HLA-B_Y123_V127L] 1.14
TLQSMYGCDMG [HLA-B_Y123_V127M] 1.14
